# This is one part of the list.
# Test system: PF3D7_0420300 AP2 domain 1 (GST-tagged)
# Assay: gcPBM binding intensity (ln(normalized median fluorescence intensity)); higher = stronger DNA binding
# Outline: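 Binding of GST-tagged P. falciparum DNA-binding domains, expressed in E. coli and used at about 25 μg on average, was carried out for 1 h in 1× PBS containing 1% milk, 0.2 mg/ml BSA, 0.5% salmon testes DNA and 0.03% Triton X-100. The target was an Agilent 4 × 180k array of primer-extended double-stranded 36-bp intergenic genomic probes plus negative controls, read with Alexa488 anti-GST antibody at 488 nm. Binding intensity is the highest Masliner-normalised natural-log median intensity across replicate spots of either probe orientation.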
row,Sequence,gcPBM binding intensity (ln)
1,GAGCATTACCCATATACACACATATATATAAACCTA [CACACA_site2737],9.63
2,TAAAACAACAAAGAAAATGAAAAAGTAAAAACATAT [CACACA_negctrl_site1049],9.78
3,GTACGATAAAAAATTGGACAAAAAAAAAAAAAAAAT [XGTACX_negctrl_site158],9.26
4,ATTTCATAAATTAAACGTACATAATACACACACATG [XGTACX_site4155],9.93
5,TTTTGCAATAATGTTGCACACTAAATAGTCATCTAT [CACACA_site4304],9.19
6,TTTTGTTATTTTTTAGTGCATATAAAGGTTGTTAAG,9.2
7,ACTGTAAAAGGATTTACACACATATTTACATTTACA [CACACA_site519],9.64
8,TACCAATGCATAACGGTGCAAAAAAATAAGGAATAA,9.36
9,ATGCATATAACTACGTGTACAAATATACACAAATAC [XGTACX_site8811],9.5
10,ATATATATATTTGTATGTACATATATATATTCGTAT [XGTACX_site1640],9.34
11,ACCCATAAAAAGGATACACACACACCCACCCATATA [CACACA_site8205],10.4
12,TTTCCTTATTAAAACACACAAATACATTATTTAATC [CACACA_site7080],9.21
13,TAATTTATGACACGCGCACACATATATATATAGTAA [CACACA_site4249],9.47
14,AAAAATTATGGACACACACACATATATATATATATT [CACACA_site4717],9.99
15,AATAAAATAAAATACACACATACATACATACAAATG [CACACA_site2438],10.2
16,GGTATACGCAAGTATACACACATATATATATATATA [CACACA_site3240],9.36
17,AAAAACTAATCTTTAACATGCAACCGTTTATACATA [TGCATGCA_site363],9.23
18,TGAGTTACATACTAATGTACACAACAAAAAAAAAAA [XGTACX_site2390],9.12
19,TTTTTTTGAACATATACACACTCTAAACTTATACAT [CACACA_site3917],9.37
20,AAAGGTTTATATGATACACACATAAGTGATCAGGTT [CACACA_site190],9.47
21,TTACTTAAATATAAGTGTCCTCAAAAAAAAAAAAAA [XGTACX_site460],8.78
22,AATATAAGTTTATTAGTGCACAGATAAATATATATT [GTGCAC_site9784],9.31
23,ATGTATGTTTTTTTTTTATTGTTCAAAAAGTTGAAG [CACACA_negctrl_site1276],9.2

row,Sequence,gcPBM binding intensity (ln)
1,ATTTTTTATATTAATTGTACATTGTATATATATATA [XGTACX_site8702],9.41
2,TTTTTATAAAAATTATTAAAAAAATTATTTATAGCT [CACACA_negctrl_site265],8.72
3,TTTTTTTTCAATCTCTATATATTAAGGTTTATATTT [XGTACX_negctrl_site397],9.25
4,TAGCGCATAAAAAAAAAAAAATATATACTAATAAAT [GTGCAC_negctrl_site276],9.14
5,AAATATATTATTATCTTATCAATTAAAAGAATAAAC [CACACA_negctrl_site779],9.09
6,AAATATAAAAGTATATGTACATATATATATATATAT [XGTACX_site7446],9.3
7,AATAAATAGATATATACACACATATATCTATAATAT [CACACA_site6557],9.5
8,TATATAATGGTAAAAACACACAAATATGAAGATGTT [CACACA_site722],9.52
9,CGTGTGTCCCCCTTAATCATCCAATCGTTCATTTTG [CACACA_negctrl_site1008],9.55
10,AGAGGATCATAGTTATGTACACATATTTAACATAAA [XGTACX_site7232],9.23
11,TCTTCATTTTTATGTGCATGTAAAATTTTTTTTTTT [TGCATGCA_site963],9.21
12,GACAATAAAAAGAAAAGTACATATATAAATTAACCA [XGTACX_site7858],9.42
13,TTTTTTTCTAATTATGCACACATATCAAAATATTCA [CACACA_site8886],9.15
14,ATATTTATTATATAATGTACAAAAAAAAAAAAAAAA [XGTACX_site629],8.83
15,TAAAATAAAAATTAAAGTACATATGTATATATATAT [XGTACX_site3984],9.39
16,AATCCTTACGGACACACACACACGAATAAATAAAAA [CACACA_site4422],9.99
17,GAGTATTCAAGTATTAGTACATATTATATAATAAAT [XGTACX_site7630],9.16
18,TACAAAATGGGGAACACACACATATATAAATAAATA [CACACA_site7751],10.1
19,ATAATTATTTTAGAAACACACAAATTAGAAAAAACA [CACACA_site3636],9.44
20,ATATAATTATTGATATGTACATATTTGTTCTAGTTT [XGTACX_site3012],9.38
21,ATTCAAATATTAAAAAGTACAAAAAAAAAACAAAAA [XGTACX_site1174],9.57
22,ACATTAAAATATGATTGTACATTTTATTATATTATA [XGTACX_site912],9.14
23,ACAACACTATATTACACATGCATTAAGAGAGTGAAC [TGCATGCA_site124],9.51

row,Sequence,gcPBM binding intensity (ln)
1,CTATCATATTTATGCACACAAAAATAATTAATTCGT [CACACA_site2614],9.35
2,TATTTTGAGAATAAATGTACGAATTTTATATTTAAA [XGTACX_site1336],8.92
3,ACCTGTTCATATGATCGTACACGTCAGTTTATATGA [XGTACX_site3869],9.42
4,CAAAATATAACATCATCACACACATATACTTTATAT [CACACA_site8292],9.83
5,ATTTAAAAATAAAGAACACACATATGTAAAATATAT [CACACA_site3754],9.55
6,TATTTAAGAGTATGAACACACATCATACACATATAA [CACACA_site3617],9.38
7,TTATTAATATATAAATGTACATATACAATACATAAA [XGTACX_site5571],9.24
8,TATGTTTGTGTATATATTTATTTTTATGTAATTATA [GTGCAC_negctrl_site219],9.66
9,AATAGAACTATTACACGTACAGAACATGAATTAGTT [XGTACX_site7518],9.36
10,TTTTTTAATTAGTACAAACACACATATACAGACAAA [CACACA_site2564],9.56
11,TGTTATATATGTAATTGTACACTTATACAAAATTAT [XGTACX_site6350],9.19
12,ATTTAGAATGCGTATACACACATATATAGATTTGCT [CACACA_site626],9.42
13,AAAAAAATTAGACACACACACACATATAAATATGTA [CACACA_site6618],10.1
14,TCCTTATATGGGCACACACACACAATAAAATGAAAA [CACACA_site1030],10
15,AAAATTAGGTATATATGTACATATATAAATATATAT [XGTACX_site3555],9.28
16,GTTTATATTAAACAAACACACACATATATATATATA [CACACA_site8749],9.52
17,TATGCTACAAGGAGAACACACAATTGCCACTTTTGG [CACACA_site2166],9.43
18,AACCATTATTTCTCTACACACATTTATGTCATTTAC [CACACA_site1499],9.96
19,ATCTATATAATATATACACACAAATATACAAAAAAA [CACACA_site1013],9.65
20,TTATATTATATATATAGTACACATGTAATATTTCAA [XGTACX_site1791],9.05
21,TACATGCATTTCTCATGTACATAATTTTCCCATATT [XGTACX_site5158],9.2
22,ATAAATTAAAGACACACACACATCTGGATACCCCTA [CACACA_site7546],9.97
23,TAAATATGCTCACAGATGCACTAACACATTTTTATA [GTGCAC_site9997],9.2

row,Sequence,gcPBM binding intensity (ln)
1,TTTTATACATAAATGTGTACGTATATATAATGAATT [XGTACX_site2762],9.29
2,TATTGTAGAGGCAAAAGTACACATTTAATAATTTCC [XGTACX_site1151],9.23
3,TATTAATAAATTTATAAAACAGGTATATATATATAT [CACACA_negctrl_site615],9.15
4,TGCAGTCTGGAGAAGAGTACATAGTATCTGGTAGCT [XGTACX_site2021],9.13
5,AAGAAAACTTAAAATAAAAGCATATTTTATCTTACA [TGCATGCA_negctrl_site366],8.99
6,ATATATATATATATATGTACACACATCAATCATATT [XGTACX_site4005],9.41
7,AGAGTACAAGTAAATACACACATATAGATGAAAATA [CACACA_site6635],9.83
8,ATGTATATGATTAAATGTACGTAAACAAATTTGTAA [XGTACX_site8174],9.25
9,ACCACATAAAACAAATGTACTTGAAATATATGCGTA [XGTACX_site5155],9.32
10,CAAAGGGAAATTAACACACACATATTTATATTTATA [CACACA_site7202],9.76
11,ATAAAAAAAAGACACACACACATATATATATATATA [CACACA_site3073],9.67
12,TCAACACACGTGGAATGTACTTTAGTATAAGAATTC [XGTACX_site7842],9.23
13,TAAATATATTTCATGACATGCAACTTGTTTTTTTGT [TGCATGCA_site456],9.34
14,TATATATATATATAAACACACATAAATATAAATATA [CACACA_site1121],9.6
15,TCTTTTACAAAAGCTATAACATTCACCACATTATAA [GTGCAC_negctrl_site133],9.1
16,ATATATATATTTTATGCATGTTCATTTTCTATATTT [TGCATGCA_site442],9.62
17,AAAAAAAAAATATACACACACATATATATATATATA [CACACA_site3404],9.46
18,GTTAATGTGGTTACTTGTACATATTAACGTCTTTTT [XGTACX_site2617],9.26
19,ATAATATATACGTGTGTGCACATGACAAAAGCATAT,9.98
20,ATATTTTATATTTCTTGTACATATATTTGTAGATAT [XGTACX_site1140],9.23
